Positions count from the first letter of the chain named. The list shows a part of the results.
T1: RBFOX1 RRM (Homo sapiens, UniProt Q9NWB1 109-208)
T1 sequence: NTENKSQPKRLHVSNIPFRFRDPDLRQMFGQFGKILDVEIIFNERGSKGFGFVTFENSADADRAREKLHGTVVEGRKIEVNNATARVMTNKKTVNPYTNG

B1: AAGUAUA (DNA:RNA)
RNA: GGGAGACCGGAAUUCAGAUUGUCCAAGUAUAUUAAAUCCCGUCGUAGCCACCA
DNA 1: CAATCTGAATTCCGGTCTCCC
DNA 2: TGGTGGCTACGACGGGATT
B2: AACUUAG (DNA:RNA)
RNA: B1 RNA with G27C, A29U, U30A, A31G
DNA 1: CAATCTGAATTCCGGTCTCCC
DNA 2: TGGTGGCTACGACGGGATT
B3: AAUAGUU (DNA:RNA)
RNA: B1 RNA with G27U, U28A, A29G, A31U
DNA 1: CAATCTGAATTCCGGTCTCCC
DNA 2: TGGTGGCTACGACGGGATT
B4: UACAAUU (DNA:RNA)
RNA: B1 RNA with A25U, G27C, U28A, A31U
DNA 1: CAATCTGAATTCCGGTCTCCC
DNA 2: TGGTGGCTACGACGGGATT
B5: CCUCUGC (DNA:RNA)
RNA: GGGAGACCGGAAUUCAGAUUGUCCCCUCUGCUUAAAUCCCGUCGUAGCCACCA
DNA 1: CAATCTGAATTCCGGTCTCCC
DNA 2: TGGTGGCTACGACGGGATT
B6: UCGCUCG (DNA:RNA)
RNA: B5 RNA with C25U, U27G, G30C, C31G
DNA 1: CAATCTGAATTCCGGTCTCCC
DNA 2: TGGTGGCTACGACGGGATT
B7: UCGUGUG (DNA:RNA)
RNA: B1 RNA with A25U, A26C, A29G, A31G
DNA 1: CAATCTGAATTCCGGTCTCCC
DNA 2: TGGTGGCTACGACGGGATT
B8: GAGAACG (DNA:RNA)
RNA: B1 RNA with A25G, U28A, U30C, A31G
DNA 1: CAATCTGAATTCCGGTCTCCC
DNA 2: TGGTGGCTACGACGGGATT
B9: CCUAAAU (DNA:RNA)
RNA: B5 RNA with C28A, U29A, G30A, C31U
DNA 1: CAATCTGAATTCCGGTCTCCC
DNA 2: TGGTGGCTACGACGGGATT
B10: UUCUUGG (DNA:RNA)
RNA: B5 RNA with C25U, C26U, U27C, C28U, C31G
DNA 1: CAATCTGAATTCCGGTCTCCC
DNA 2: TGGTGGCTACGACGGGATT
B11: AGCCGGG (DNA:RNA)
RNA: B5 RNA with C25A, C26G, U27C, U29G, C31G
DNA 1: CAATCTGAATTCCGGTCTCCC
DNA 2: TGGTGGCTACGACGGGATT
B12: UCUUCUC (DNA:RNA)
RNA: B5 RNA with C25U, C28U, U29C, G30U
DNA 1: CAATCTGAATTCCGGTCTCCC
DNA 2: TGGTGGCTACGACGGGATT
B13: UCGGGGU (DNA:RNA)
RNA: B5 RNA with C25U, U27G, C28G, U29G, C31U
DNA 1: CAATCTGAATTCCGGTCTCCC
DNA 2: TGGTGGCTACGACGGGATT
B14: AGGUUGU (DNA:RNA)
RNA: B1 RNA with A26G, A29U, U30G, A31U
DNA 1: CAATCTGAATTCCGGTCTCCC
DNA 2: TGGTGGCTACGACGGGATT
B15: CCGUUGA (DNA:RNA)
RNA: B5 RNA with U27G, C28U, C31A
DNA 1: CAATCTGAATTCCGGTCTCCC
DNA 2: TGGTGGCTACGACGGGATT
B16: AAGCAUC (DNA:RNA)
RNA: B1 RNA with U28C, A31C
DNA 1: CAATCTGAATTCCGGTCTCCC
DNA 2: TGGTGGCTACGACGGGATT
B17: UUCGACA (DNA:RNA)
RNA: B1 RNA with A25U, A26U, G27C, U28G, U30C
DNA 1: CAATCTGAATTCCGGTCTCCC
DNA 2: TGGTGGCTACGACGGGATT
B18: UGCGUUU (DNA:RNA)
RNA: B1 RNA with A25U, A26G, G27C, U28G, A29U, A31U
DNA 1: CAATCTGAATTCCGGTCTCCC
DNA 2: TGGTGGCTACGACGGGATT
B19: AGAAUUC (DNA:RNA)
RNA: B1 RNA with A26G, G27A, U28A, A29U, A31C
DNA 1: CAATCTGAATTCCGGTCTCCC
DNA 2: TGGTGGCTACGACGGGATT
B20: CACCAGU (DNA:RNA)
RNA: B5 RNA with C26A, U27C, U29A, C31U
DNA 1: CAATCTGAATTCCGGTCTCCC
DNA 2: TGGTGGCTACGACGGGATT
B21: ACACCAG (DNA:RNA)
RNA: B5 RNA with C25A, U27A, U29C, G30A, C31G
DNA 1: CAATCTGAATTCCGGTCTCCC
DNA 2: TGGTGGCTACGACGGGATT
B22: UGGCGUC (DNA:RNA)
RNA: B1 RNA with A25U, A26G, U28C, A29G, A31C
DNA 1: CAATCTGAATTCCGGTCTCCC
DNA 2: TGGTGGCTACGACGGGATT
B23: GCAGGGC (DNA:RNA)
RNA: B5 RNA with C25G, U27A, C28G, U29G
DNA 1: CAATCTGAATTCCGGTCTCCC
DNA 2: TGGTGGCTACGACGGGATT
B24: UGGGGGG (DNA:RNA)
RNA: B1 RNA with A25U, A26G, U28G, A29G, U30G, A31G
DNA 1: CAATCTGAATTCCGGTCTCCC
DNA 2: TGGTGGCTACGACGGGATT
B25: CGUUGAC (DNA:RNA)
RNA: B5 RNA with C26G, C28U, U29G, G30A
DNA 1: CAATCTGAATTCCGGTCTCCC
DNA 2: TGGTGGCTACGACGGGATT
B26: CCUAUAU (DNA:RNA)
RNA: B5 RNA with C28A, G30A, C31U
DNA 1: CAATCTGAATTCCGGTCTCCC
DNA 2: TGGTGGCTACGACGGGATT
B27: GAACUUU (DNA:RNA)
RNA: B1 RNA with A25G, G27A, U28C, A29U, A31U
DNA 1: CAATCTGAATTCCGGTCTCCC
DNA 2: TGGTGGCTACGACGGGATT
B28: GAAACGG (DNA:RNA)
RNA: B1 RNA with A25G, G27A, U28A, A29C, U30G, A31G
DNA 1: CAATCTGAATTCCGGTCTCCC
DNA 2: TGGTGGCTACGACGGGATT
B29: UUCCAGG (DNA:RNA)
RNA: B5 RNA with C25U, C26U, U27C, U29A, C31G
DNA 1: CAATCTGAATTCCGGTCTCCC
DNA 2: TGGTGGCTACGACGGGATT
B30: UUCGUGG (DNA:RNA)
RNA: B5 RNA with C25U, C26U, U27C, C28G, C31G
DNA 1: CAATCTGAATTCCGGTCTCCC
DNA 2: TGGTGGCTACGACGGGATT
B31: AACCGUC (DNA:RNA)
RNA: B1 RNA with G27C, U28C, A29G, A31C
DNA 1: CAATCTGAATTCCGGTCTCCC
DNA 2: TGGTGGCTACGACGGGATT

Target: T1, RBFOX1 RRM
Test: EMSA; HiTS-Eq, 1 nM pool, 10 min; buffer printed only for the single-RNA assays: 10 mM Tris pH 7.5, 150 mM NaCl, 3.4 mM EDTA, 0.001% NP-40, 30 C
Conditions: tags: His6 N-terminal (pET28a); label: 5' 32P
In short: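 Purified RbFox RRM, wild type or mutant, was incubated for 10 min in 50 µL with 1 nM of a 5′-radiolabelled RNA pool carrying 7 randomized nucleotides, whose flanks were annealed to DNA oligonucleotides, over a series of increasing protein concentrations. Unbound RNA was resolved on 8% native PAGE, cut out, reverse-transcribed, barcoded by PCR and sequenced on an Illumina HiSeq 2500. Relative association constants were derived from changes in read counts for each RNA species versus the control reaction and normalised to the cognate motif.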

| Binder | binding signal |
| --- | --- |
| B1 | 0.000855 KA relative to UGCAUGU |
| B2 | 0.0103 KA relative to UGCAUGU |
| B3 | 0.00551 KA relative to UGCAUGU |
| B4 | 0.00044 KA relative to UGCAUGU |
| B5 | 0.00878 KA relative to UGCAUGU |
| B6 | 0.0321 KA relative to UGCAUGU |
| B7 | 0.026 KA relative to UGCAUGU |
| B8 | 0.0165 KA relative to UGCAUGU |
| B9 | 0.00166 KA relative to UGCAUGU |
| B10 | 0.0148 KA relative to UGCAUGU |
| B11 | 0.0115 KA relative to UGCAUGU |
| B12 | 0.00912 KA relative to UGCAUGU |
| B13 | 0.0175 KA relative to UGCAUGU |
| B14 | 0.0146 KA relative to UGCAUGU |
| B15 | 0.0125 KA relative to UGCAUGU |
| B16 | 0.0137 KA relative to UGCAUGU |

| Binder | binding signal |
| --- | --- |
| B17 | 0.00614 KA relative to UGCAUGU |
| B18 | 0.0236 KA relative to UGCAUGU |
| B19 | 0.00754 KA relative to UGCAUGU |
| B20 | 0.00204 KA relative to UGCAUGU |
| B21 | 0.000772 KA relative to UGCAUGU |
| B22 | 0.0251 KA relative to UGCAUGU |
| B23 | 0.0104 KA relative to UGCAUGU |
| B24 | 0.0192 KA relative to UGCAUGU |
| B25 | 0.0168 KA relative to UGCAUGU |
| B26 | 0.00417 KA relative to UGCAUGU |
| B27 | 0.00658 KA relative to UGCAUGU |
| B28 | 0.00878 KA relative to UGCAUGU |
| B29 | 0.00624 KA relative to UGCAUGU |
| B30 | 0.0117 KA relative to UGCAUGU |
| B31 | 0.00529 KA relative to UGCAUGU |
